Consider 44 compounds from article PMC4336329 (PLoS ONE, 2015).

Screen size: about 310,000 compounds; about 2,200 (0.71%) showed an effect of 50% or more. The effect is printed as a negative number. Some of the results follow.

The experiment deals with human ether-à-go-go-related gene (hERG) potassium channel (human, UniProt Q12809). The experiment in a line: primary screen, population patch clamp on CHO cells stably expressing hERG.
Sequence of human ether-à-go-go-related gene (hERG) potassium channel (Q12809 whole entry, looked up): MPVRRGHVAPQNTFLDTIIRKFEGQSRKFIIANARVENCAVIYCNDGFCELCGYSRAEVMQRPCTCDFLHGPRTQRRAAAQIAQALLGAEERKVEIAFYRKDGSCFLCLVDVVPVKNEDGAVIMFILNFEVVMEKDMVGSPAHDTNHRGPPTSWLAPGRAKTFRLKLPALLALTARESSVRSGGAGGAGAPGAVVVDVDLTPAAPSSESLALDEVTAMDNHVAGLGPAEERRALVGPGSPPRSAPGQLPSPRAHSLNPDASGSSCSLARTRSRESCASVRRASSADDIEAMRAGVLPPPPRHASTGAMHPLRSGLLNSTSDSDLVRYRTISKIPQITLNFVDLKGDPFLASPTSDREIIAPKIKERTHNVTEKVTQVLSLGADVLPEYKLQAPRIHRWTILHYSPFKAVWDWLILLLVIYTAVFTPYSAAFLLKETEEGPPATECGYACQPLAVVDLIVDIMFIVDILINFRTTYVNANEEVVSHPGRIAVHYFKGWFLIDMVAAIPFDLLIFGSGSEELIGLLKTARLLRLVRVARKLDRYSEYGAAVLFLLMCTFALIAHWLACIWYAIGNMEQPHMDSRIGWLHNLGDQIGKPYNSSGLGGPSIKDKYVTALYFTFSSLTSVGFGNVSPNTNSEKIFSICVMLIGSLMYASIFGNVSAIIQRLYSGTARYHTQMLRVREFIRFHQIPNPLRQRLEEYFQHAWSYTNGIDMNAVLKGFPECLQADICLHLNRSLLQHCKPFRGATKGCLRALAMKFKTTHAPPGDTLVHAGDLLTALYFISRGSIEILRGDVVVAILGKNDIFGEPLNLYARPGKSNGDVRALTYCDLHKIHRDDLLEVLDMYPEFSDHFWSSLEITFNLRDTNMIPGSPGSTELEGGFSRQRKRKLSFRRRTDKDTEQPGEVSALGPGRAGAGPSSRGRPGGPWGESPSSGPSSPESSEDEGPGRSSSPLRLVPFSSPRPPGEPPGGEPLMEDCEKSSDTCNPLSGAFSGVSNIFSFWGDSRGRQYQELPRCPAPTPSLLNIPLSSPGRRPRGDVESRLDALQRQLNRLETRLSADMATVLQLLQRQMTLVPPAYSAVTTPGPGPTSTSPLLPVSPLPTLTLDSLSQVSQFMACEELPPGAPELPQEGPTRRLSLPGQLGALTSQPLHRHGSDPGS
For `COc1ccccc1/C=C/C(=O)OCCN1CCOCC1.Cl`, the “hERG current change (%, negative = inhibition) at 1uM” value is reported as 5.39%.
Consider `O=C(Nc1ccccc1)C1=C[C@@H](c2ccccc2)C[C@@H](OCc2ccc(CO)cc2)O1`, for which the “hERG current change (%, negative = inhibition) at 1uM” value was determined as 11.9%.
With `O=C(OCCc1cc2ccccc2c(=O)o1)N1CCOCC1`, the “hERG current change (%, negative = inhibition) at 1uM” value worked out at 16.1%.
In the case of `CCC(=O)Nc1ccc(NC(=O)c2oc3ccccc3c2C)cc1` it was 9.2%; in that of `COc1ccccc1NC(=S)NC1CCCC1`, 14.8%.
Turning to `CC1(C)CC(NC(=O)COc2ccc3ccccc3c2)CC(C)(C)N1`, the “hERG current change (%, negative = inhibition) at 1uM” value was determined as 18%.
Regarding `O=C(/C=C/c1ccc(Br)cc1)c1ccco1`, the “hERG current change (%, negative = inhibition) at 1uM” value was found to be 9.68%.
In the case of `CC1CCCN(CC(=O)Nc2ccc(S(=O)(=O)N3CCCCC3)cc2)C1` (centres unmarked) it was 7.51%; in that of `Cc1ccc2nc(-c3ccccc3)cc(C(=O)N3CC(C)OC(C)C3)c2c1` (centres unmarked), 11.4%; in that of `Cc1cc(C(=O)N2CCOCC2)c(C)o1`, 3.12%.
For `CC(C)(C)NC(=S)NNC(=O)c1ccc2ncccc2c1`, the “hERG current change (%, negative = inhibition) at 1uM” value was 6.92%.
Take `CCOC(=O)C1CCCN(C(=O)c2ccccc2Oc2ccccc2)C1` (centres unmarked): the “hERG current change (%, negative = inhibition) at 1uM” value came out at 5.92%.
The same measure for `COCCNC(=S)N/N=C(\C)c1ccc2cc(OC)ccc2c1`: 20.6%.
Turning to `CN(C)c1nc(N(C)C)nc(N2CC(=O)N(c3ccccc3)C2=N)n1`, the “hERG current change (%, negative = inhibition) at 1uM” value is given as 9.67%.
On to `CC(SCc1ccccc1)C(=O)Nc1ccccc1-c1ccccc1` (centres unmarked), for which the “hERG current change (%, negative = inhibition) at 1uM” value was -6.58%.
As to `COc1ccc(-c2noc(N3CCC(C(=O)Nc4ccc(F)cc4F)CC3)n2)cc1`, the “hERG current change (%, negative = inhibition) at 1uM” value is -5.2%.
Take `Cc1[nH]c2ccccc2c1C(=O)C(=O)NCc1ccncc1`: the “hERG current change (%, negative = inhibition) at 1uM” value is recorded as 15.4%.
As for `C[C@@H]1C(=O)O[C@H]2[C@H](O)[C@@]34[C@H]5C[C@@H](C(C)(C)C)[C@]36[C@@H](OC(=O)[C@@H]6O)O[C@@]4(C(=O)O5)[C@@]12O`, the “hERG current change (%, negative = inhibition) at 1uM” value turned out to be 15.7%.
For `CC(=O)c1ccc(OC(=O)CCN2c3ccccc3Sc3ccccc32)cc1`, the “hERG current change (%, negative = inhibition) at 1uM” value stood at 17%.
On to `COc1ccc(CN2CCNC(=O)C2CC(=O)NCCC2=CCCCC2)c(F)c1` (centres unmarked), for which the “hERG current change (%, negative = inhibition) at 1uM” value is on record as -8.51%.
With `CCOC(CNC(=O)CN1C(=O)COc2ccc(S(=O)(=O)N3CCOCC3)cc21)OCC`, the “hERG current change (%, negative = inhibition) at 1uM” value amounted to 17.6%.
Turning to `COc1cccc(NC(=O)NC2CCCc3ccccc32)c1` (centres unmarked), the “hERG current change (%, negative = inhibition) at 1uM” value is -7.42%.
The same measure for `CN(C(=O)COC(=O)CNC(=O)CNC(=O)c1ccc(Cl)cc1Cl)c1ccccc1`: 17%; for `O=C(CC(=O)NC1CCCCC1)N/N=C/c1ccc(Cl)cc1`: 4.6%; for `O=C(NC1CCCCC1)c1ccc(CS(=O)Cc2ccccc2Cl)o1` (centres unmarked): 5.07%.
Regarding `COc1ccc(S(=O)(=O)N2CCN(C)CC2)cc1NC(=O)c1ccccc1F`, the “hERG current change (%, negative = inhibition) at 1uM” value is 13.2%.
Regarding `O=C(O)c1nn(Cc2ncc(-c3cccc(Cl)c3)o2)c(=O)c2ccccc12`, the “hERG current change (%, negative = inhibition) at 1uM” value turned out to be 2.72%.
The same measure for `CCN(CC)S(=O)(=O)c1ccc2c(c1)N(CC(=O)NCC1CCCO1)C(=O)CO2` (centres unmarked): 12.1%.
Regarding `O=C(C1CCN(S(=O)(=O)N2CCOCC2)CC1)N1CCN(c2ccccc2F)CC1`, the “hERG current change (%, negative = inhibition) at 1uM” value is listed as 13.2%.
Regarding `Cc1cc(C)c(C(=O)Nc2ccccc2)c(CC(C)(C)C(=O)O)c1`, the “hERG current change (%, negative = inhibition) at 1uM” value turned out to be 14.6%.
In the case of `COc1ccc(-n2ncc3c(=O)n(CC(=O)Nc4ccc5c(c4)OCCO5)cnc32)cc1`, the “hERG current change (%, negative = inhibition) at 1uM” value is 21.5%.
Turning to `Cc1cc(NC(=O)C2CCCN2C(=O)Nc2cccc(Cl)c2)ccc1-n1cnnn1` (centres unmarked), the “hERG current change (%, negative = inhibition) at 1uM” value stood at 0.706%.
In the case of `Cn1c(=O)c2c(nc(Br)n2Cc2ccc3ccccc3c2)n(C)c1=O`, the “hERG current change (%, negative = inhibition) at 1uM” value was 5.83%.
As for `Cc1ccc(S(=O)(=O)c2c(N)n(Cc3ccco3)c3nc4ccccc4nc23)cc1`, the “hERG current change (%, negative = inhibition) at 1uM” value is on record as 6.22%.
The same measure for `CC(=O)NC(Cc1ccc(F)cc1)C(=O)NC1CCN(S(=O)(=O)c2ccccc2)CC1` (centres unmarked): 11%; for `Cc1cc(F)ccc1NC(=O)c1cccnc1`: -4.47%; for `Cc1ccc(N=C2N=C(N)c3ccccc32)c(C)c1`: 0.355%.
In the case of `O=C(Nc1ccccc1C(=O)NC(Cc1ccc(O)cc1)C(=O)O)c1ccccc1` (centres unmarked), the “hERG current change (%, negative = inhibition) at 1uM” value amounted to 7.5%.
The same measure for `CCOC(=O)c1cnc2ccc(OCC)cc2c1NCc1ccccc1`: -12.8%.
The same measure for `COc1ccc2nc(NC3=NC(c4ccccc4)CC(=O)N3)nc(C)c2c1` (centres unmarked): -0.781%.
For the compound `Cc1ccc(S(=O)(=O)NCC(=O)N/N=C/c2ccc(Cl)cc2Cl)cc1`, the “hERG current change (%, negative = inhibition) at 1uM” value is on record as 10%.
Regarding `CCOc1ccc(CCNS(=O)(=O)c2ccc3c(c2)NC(=O)CO3)cc1OCC`, the “hERG current change (%, negative = inhibition) at 1uM” value is -4.15%.
Regarding `Cc1cc(OCc2nnc(SC(C)C(=O)O)n2-c2ccccc2)ccc1Cl` (centres unmarked), the “hERG current change (%, negative = inhibition) at 1uM” value turned out to be 15.5%.
On to `Cc1cc(C(=O)NCc2cc(F)cc3c2OCOC3)nn1C`, for which the “hERG current change (%, negative = inhibition) at 1uM” value is on record as 9.31%.
